The supplement of paper PMC10369915
The other results are listed elsewhere or left out. Cut-off read from the data, not from the text of the source: active = 3.2 or more and inactive = the rest. The signal is at background level for most entries.

Each binder was assayed against SHP2 C-SH2 domain E139D (assay: enrichment score (SH2-bound / input frequency) (ratio); bacterial display of known human phosphotyrosine sites (pTyr-Var adds point mutants) read by sequencing; higher = stronger binding; tyrosines were phosphorylated by kinases first). Details: peptide library: pTyr-Var.
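Note: displayed peptides selected on beads carrying the immobilized SH2 domain, with library peptides lacking any tyrosine serving as negative controls.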

Binder | enrichment score
QQMGTYGVRAA [ICAM2_Y260_R256Q] | inactive: 0.71
REETTYLPLTS [ICAM3_Y527_S525T] | inactive: 0.714
IGCHAYGDQFR [IDH1_Y135_R132C_YF] | inactive: 1.01
FLAVEYHKPHI [IDS_Y225_G224E] | inactive: 1.73
FLAVGYHMPHI [IDS_Y225_K227M] | active: 3.31
FPAVGYHKPHI [IDS_Y225_L221P] | inactive: 2.23
FLAVGYHKLHI [IDS_Y225_P228L] | inactive: 3.13
YIPFRYPKEFQ [IDS_Y234_H229Y] | inactive: 0.855
FIPFRYPKEFQ [IDS_Y234_H229Y_YF] | inactive: 1.25

Each binder was assayed against SHP2 C-SH2 domain wild-type in the same assay as above. Details: peptide library: pTyr-Var.

Binder | enrichment score
QQMGTYGVRAA [ICAM2_Y260_R256Q] | inactive: 0.501
REETTYLPLTS [ICAM3_Y527_S525T] | inactive: 0.655
IGCHAYGDQFR [IDH1_Y135_R132C_YF] | inactive: 1.11
FLAVEYHKPHI [IDS_Y225_G224E] | inactive: 2.07
FLAVGYHMPHI [IDS_Y225_K227M] | inactive: 2.62
FPAVGYHKPHI [IDS_Y225_L221P] | inactive: 2.19
FLAVGYHKLHI [IDS_Y225_P228L] | active: 3.53
YIPFRYPKEFQ [IDS_Y234_H229Y] | inactive: 0.815
FIPFRYPKEFQ [IDS_Y234_H229Y_YF] | inactive: 0.954

These binders were tested against SHP2 N-SH2 domain L43F in the same assay as above. Details: peptide library: pTyr-Var.

Binder | enrichment score
QQMGTYGVRAA [ICAM2_Y260_R256Q] | inactive: 0.503
REETTYLPLTS [ICAM3_Y527_S525T] | inactive: 0.746
IGCHAYGDQFR [IDH1_Y135_R132C_YF] | inactive: 0.95
FLAVEYHKPHI [IDS_Y225_G224E] | inactive: 2.03
FLAVGYHMPHI [IDS_Y225_K227M] | inactive: 2.37
FPAVGYHKPHI [IDS_Y225_L221P] | inactive: 1.97
FLAVGYHKLHI [IDS_Y225_P228L] | inactive: 3.18
YIPFRYPKEFQ [IDS_Y234_H229Y] | inactive: 0.899
FIPFRYPKEFQ [IDS_Y234_H229Y_YF] | inactive: 1.21

These binders were tested against SHP2 N-SH2 domain T42A in the same assay as above. Details: peptide library: pTyr-Var.

Binder | enrichment score
QQMGTYGVRAA [ICAM2_Y260_R256Q] | inactive: 0.484
REETTYLPLTS [ICAM3_Y527_S525T] | inactive: 0.629
IGCHAYGDQFR [IDH1_Y135_R132C_YF] | inactive: 0.702
FLAVEYHKPHI [IDS_Y225_G224E] | inactive: 3.17
FLAVGYHMPHI [IDS_Y225_K227M] | inactive: 3
FPAVGYHKPHI [IDS_Y225_L221P] | inactive: 2.11
FLAVGYHKLHI [IDS_Y225_P228L] | inactive: 2.61
YIPFRYPKEFQ [IDS_Y234_H229Y] | inactive: 0.896
FIPFRYPKEFQ [IDS_Y234_H229Y_YF] | inactive: 1.12

The binders below were run against SHP2 N-SH2 domain T52S in the same assay as above. Details: peptide library: pTyr-Var.

Binder | enrichment score
QQMGTYGVRAA [ICAM2_Y260_R256Q] | inactive: 0.477
REETTYLPLTS [ICAM3_Y527_S525T] | inactive: 0.541
IGCHAYGDQFR [IDH1_Y135_R132C_YF] | inactive: 1.25
FLAVEYHKPHI [IDS_Y225_G224E] | inactive: 1.75
FLAVGYHMPHI [IDS_Y225_K227M] | inactive: 2.34
FPAVGYHKPHI [IDS_Y225_L221P] | inactive: 1.93
FLAVGYHKLHI [IDS_Y225_P228L] | inactive: 2.59
YIPFRYPKEFQ [IDS_Y234_H229Y] | inactive: 0.892
FIPFRYPKEFQ [IDS_Y234_H229Y_YF] | inactive: 1.31

Each binder was assayed against SHP2 N-SH2 domain wild-type in the same assay as above. Details: peptide library: pTyr-Var.

Binder | enrichment score
QQMGTYGVRAA [ICAM2_Y260_R256Q] | inactive: 0.729
REETTYLPLTS [ICAM3_Y527_S525T] | inactive: 0.775
IGCHAYGDQFR [IDH1_Y135_R132C_YF] | inactive: 1.14
FLAVEYHKPHI [IDS_Y225_G224E] | inactive: 2.41
FLAVGYHMPHI [IDS_Y225_K227M] | inactive: 3.13
FPAVGYHKPHI [IDS_Y225_L221P] | inactive: 2.11
FLAVGYHKLHI [IDS_Y225_P228L] | active: 3.53
YIPFRYPKEFQ [IDS_Y234_H229Y] | inactive: 0.734
FIPFRYPKEFQ [IDS_Y234_H229Y_YF] | inactive: 1.29
